# According to ChEMBL document CHEMBL4888484, “Replenishing the malaria drug discovery pipeline: Screening and hit evaluation of the MMV Hit Generation Library 1 (HGL1) against asexual blood stage Plasmodium falciparum ,using a nano luciferase reporter read-out” (2022):
# About 540 (0.36%) of roughly 150,000 compounds showed an effect of 50% or more. This is one part of the list.
# System: Plasmodium falciparum
# Experiment: Primary screen in NF54 nanoGlo assay, in single point, at 2uM, 72h; a lower Z score goes with more inhibition
# Type: functional, Erythrocyte
# Details: timepoint 72 hour
SMILES,% Inhibition [%],Z score
O=C(NCCCN1CCCCC1)C1CCN(Cc2nnc(-c3cccc(Cl)c3)o2)CC1,33,-3.79
CCOc1ccc(NC(=O)c2cnc3c(c(C)nn3-c3ccc(C)cc3)c2O)cc1,-12,1.58
O=C(Nc1nc(C(=O)NCCCN2CCOCC2)cs1)c1cccc(Cl)c1,-6,1.01
Fc1ccccc1CN1CCC(CNc2nc(-c3ccccc3)no2)CC1,-15,1.36
CCCc1cc(CN(C)Cc2ccc3c(ccn3C)c2)n[nH]1,-6,0.7
CC(C)C(=O)NC[C@H]1CCCCC(=O)N1,3,-0.6
CC1CN(C(C)C)CC1NS(=O)(=O)C1CCOC1 (configuration not stated),-10,1.46
O=C(CCc1ccccc1)N1CC2(C[C@H](N3CCCC3)CO2)C1,-8,0.88
CCC(Nc1nnnn1-c1ccccc1)C(=O)N1CCC(CNC)C1 (configuration not stated),-5,0.68
Cn1ncnc1CCNC(=O)CCC(=O)N1CCCCCC1,-11,1.75
O=C(CCC[C@@H]1[C@H]2CCCN3CCC[C@@H](CN1C(=O)c1ccccc1F)[C@@H]23)NCC1CC1,-3,0.55
COc1ccc(C(=O)N2CC3CN(Cc4ccccc4)CC3C2)cc1 (configuration not stated),5,-0.7
CC1CN(C(=O)Cc2noc3ccccc23)C(C)CO1 (configuration not stated),-6,0.9
CC1(C2CCN(C(=O)C(=O)NC3CC3)CC2)OCCO1,-5,1
COc1cc(-c2nc3cc(C)ccc3o2)cc2c1OCO2,-11,2.03
COc1ncc(C#N)c(C)c1Br,-4,0.76
C=C1C2(C(=O)N3CCN(c4ccccc4)CC3)CCC(C2)C1(C)C (configuration not stated),-17,2.02
O=C1CN(Cc2cn(C3CCN(C(=O)[C@@H]4CC=CCC4)CC3)nn2)CCN1,6,-0.79
C[C@@H]1CN(c2nccnc2C#N)C[C@H]1CO,-1,0.1
O=C(N[C@@H]1CN(C(=O)c2ccccn2)CC[C@@H]1CO)c1ccccc1,-8,1.03
Cc1cccc(-c2cc(Nc3ccc(Oc4ccccc4)cc3)nc(C)n2)c1,5,-0.65
Cc1ccc(CCNC(=O)CCn2nc(-c3ccc(C)cc3)ccc2=O)cc1,-14,2.2

SMILES,% Inhibition [%],Z score
O=C(CN1CCCC1CC(O)c1ccccc1)NCc1ccco1 (configuration not stated),-3,0.3
c1cn(CCCOc2ccc3c(c2)OCO3)nn1,37,-5.39
Cc1cccc(C)c1Oc1ncccc1CNC(=O)[C@@H]1CCCCN1C,-11,1.26
COc1ccc(C(NC2CCN(C(=O)C(C)C)CC2)[C@H]2C[C@@H](O)C2)cn1 (some centres not stated),10,-2.05
C[C@@H](Cc1ccsc1)N1CC2(CCNCC2)CCC1=O,15,-1.91
O=C(Nc1ccccc1OCc1ccccc1)N[C@@H]1CCCNC1,-8,0.84
O=C1c2ccccc2N[C@H](c2cccnc2)N1Cc1ccc2c(c1)OCO2,8,-1.24
Cc1cnc(CCNC(=O)CN2CCCCCC2)n1C1CC1,-5,0.73
CCCn1nnnc1CN[C@@H](C)c1ccc(F)c(Cl)c1,-5,0.7
C(=C\c1cc(/C=C/c2ccccc2)ncn1)/c1ccccc1,-16,2.18
Cc1nc(C2CCCC2)sc1C(=O)Nc1ccc(N2CCNC(=O)C2)nc1,-4,0.55
CC(C)(C)n1cnc(NC(=O)N2CC(O)(c3cccc(Br)c3)C2)n1,-9,1.02
Cc1cc(=O)n(-c2nc(-c3ccc(Br)cc3)cs2)[nH]1,-8,1.61
Cc1cccc2sc(OC3CN(S(=O)(=O)Cc4ccccc4)C3)nc12,-1,0.08
Cc1nc(CNCc2c[nH]nc2C)cs1,-7,1.01
Cn1nncc1C(=O)N1CCC[C@H](OCC2CC2)C1,-3,0.4
Nc1nc2c(s1)CC1(CC2)OCCO1,-11,0.96
Cc1nn(-c2ccccc2)c(N2CCC(C(=O)N3CCCCCC3)CC2)c1-n1c(C)ccc1C,2,-0.23
Cc1nc(C)c(Br)c(N2CC(n3cc(CO)nn3)C2)n1,-13,2.02
Cc1ncc(C(=O)NC[C@H](C)Oc2cccnc2)c(O)n1,-18,1.65
Cc1nn(C)cc1CN1CCc2n[nH]c(=O)n2CC1,-9,0.81
CCCN1CCN(c2ccc(-c3nc(-c4ccccc4)no3)nn2)CC1,-18,2.07

SMILES,% Inhibition [%],Z score
CN(Cc1nccn1C)C(=O)c1occc1-c1ccc(F)cc1,5,-0.73
CC(C)NC(=O)C1CN(C(=O)c2ccc3c(c2)OCO3)CC1c1cccc(C(F)(F)F)c1 (configuration not stated),-7,0.81
CC(C)c1cccc(-c2nnc(C3CCOCC3)o2)n1,-8,1
COCCCN(Cc1ccc(OC)c(OC)c1)C[C@H](O)COC(C)(C)C,-4,0.76
O=S(=O)(c1cccc2nsnc12)N1CC[C@@H]2COCCN(Cc3cccnc3)[C@@H]2C1,-15,1.91
CCc1c(C(=O)Nc2ccc(-n3cncn3)nc2)cnn1-c1ccccc1,-7,1.32
Cc1ccc(-c2c(N3CCCC3)n[nH]c2C2CC2)cc1,28,-3.12
COc1ccc(CN2CCn3c(n[nH]c3=O)C2)cc1CN(C(C)C)C(C)C,-13,2.2
CC1CN(C(=O)NCc2ccc3c(c2)OCO3)C(C)CO1 (configuration not stated),-16,3.1
NC(=O)CO[C@H]1CCOC[C@H]1NC(=O)c1ccc(Oc2ccccc2)o1,4,-0.64
O=C(Nc1nc(-c2cccs2)c(-c2cccs2)s1)c1cccc(Cl)c1Cl,-1,0.22
Cc1nc(-c2ccc(C(F)(F)F)cc2)c(N)c(N2CCOCC2)n1,-13,1.75
C1CCN2CC3CN(c4nc(C5CC5)no4)CC3C2C1 (configuration not stated),-6,0.55
Cc1noc(C)c1S(=O)(=O)N[C@H]1CCOC[C@@H]1OCC1CC1,-4,0.64
CC(=O)N(C[C@@H]1OC(c2ccccc2Cl)=NN1C(C)=O)c1ccc(Cl)cc1C,10,-1.34
CC[C@@H](C(=O)NCCc1cccs1)N(C)CC,-19,1.96
CCN(CCc1ccccc1)CC(=O)Nc1cc(S(N)(=O)=O)ccc1N(CC)CC,7,-1.01
CCn1ncc(CN2CCO[C@@H](Cc3ccccc3Cl)C2)c1C,13,-1.69
O=C(Nc1cc(C2CC2)n[nH]1)c1cc(-c2ccccn2)no1,-16,3.11
COC[C@H](Cc1ccccc1)Nc1cccnc1,-6,0.7
O=C(Nc1ccc(C(=O)O)cc1)N[C@H]1CCCN(Cc2cccc(O)c2)C1,-7,0.89
Cn1ccc(=O)n1Cc1cccc(C(C)(C)C)c1,-4,0.35

SMILES,% Inhibition [%],Z score
CCN(Cc1nc2cc(OC)c(OC)cc2c(=O)[nH]1)C(=O)c1sc(-c2ccccc2)nc1C,-4,0.73
CC(C)CS(=O)(=O)C1CN(C(=O)Cc2noc3ccccc23)C1,-12,1.5
O=S(=O)(Nc1cc(-c2nc[nH]n2)ccc1F)c1cncc(Cl)c1,-1,0.14
COC[C@H](C)C1CCN(C(=O)c2nc3ccccc3[nH]2)CC1,-10,1.47
CC(C)c1ccc2c(c1)CC[C@H]1[C@](C)(CNC(=O)c3n[nH]c4c3CCCC4)CCC[C@]21C,-8,0.98
COC[C@H]1[C@@H](NC(=O)c2cccnc2OC)[C@H]2CCO[C@H]21,-1,0.12
O=C(NCCn1cnc(-c2ccccc2)cc1=O)c1cc(N2CCCC2)ncn1,-16,2.68
O=C(CCc1ccccc1)N1CCc2n[nH]c(=O)n2CC1,-4,0.47
COc1cccc([C@H]2C[C@@H]2C(=O)N(C)CC(=O)NC2CC2)c1,-8,0.93
CCC(CC)Nc1ccncc1NC(=O)c1ccnc2ccnn12,0,-0.05
CCCc1cnc(NCc2cnc3cnccn23)s1,-7,1.27
CCc1ccc(CNC(=O)[C@H]2CCCN(c3cc(=O)n(C)c(=O)n3CC)C2)cc1,-2,0.3
N#Cc1ccc(N2CC[S+]([O-])CC2)c(F)c1,-10,1.26
CC1(C)CN(Cc2nnc(C3CC3)o2)CCN1Cc1ccccc1,-3,0.43
CCCCNC(=O)c1nn[nH]c1-c1ccccc1O,1,-0.14
CCc1nc(C)nc(N2CCN(C[C@H](O)C(C)C)CC2)c1Cc1ccc(C)cc1,-6,1.06
Cc1ocnc1-c1noc(CC(C)C)n1,7,-0.79
COCc1noc(CN(C)Cc2noc(C3CC3)n2)n1,-3,0.6
Cc1ccc(NC(=O)N2CC[C@H](N(CCN3CCCC3)S(=O)(=O)N(C)C)C2)cc1F,35,-3.95
CC(C)c1cc(C(=O)N2C[C@H](NS(=O)(=O)N(C)C)[C@@H](C(C)C)C2)no1,-4,0.79
